In PMC10928841, “Ames test study designs for nitrosamine mutagenicity testing: qualitative and quantitative analysis of key assay parameters” (Mutagenesis, 2023):
Read-outs that look alike come from different tables or passages of the source.

Tests used:
E. coli WP2uvrA (pKM101) [1] = assay: Ames test, pre-incubation method, WP2uvrA (pKM101); details: up to 5000 µg/plate
S. typhimurium TA100 = assay: Ames test, pre-incubation method, TA100; details: up to 5000 µg/plate
E. coli WP2uvrA (pKM101) [2] = details: plate incorporation, S9 rat, up to 5000 µg/plate
[3] = tested on: S. typhimurium TA98, TA100, TA1535, TA1537 and E. coli WP2uvrA pKM101; assay: Ames test, plate incorporation method, overall result of five strains; details: for Ames test Result: up to 5000 µg/plate
S. typhimurium TA1535 = assay: Ames test, pre-incubation method, TA1535; details: S9 hamster, up to 5000 µg/plate
[4] = tested on: S. typhimurium TA98, TA100, TA1535, TA1537 and E. coli WP2uvrA pKM101; assay: Ames test, pre-incubation method, overall result of five strains; details: for Ames test Result: up to 5000 µg/plate

CCN(C)N=O [NMEA, N-nitrosomethylethylamine]
Ames test strain WP2* (E. coli WP2uvrA (pKM101) [1]; S9 hamster, vehicle methanol): + (positive for mutagenicity, if a biologically relevant increase in the mean number of revertant colonies above a threshold of 2-fold (TA98, TA100, WP2 uvrA))
Ames test strain WP2* (E. coli WP2uvrA (pKM101) [1]; S9 hamster, vehicle water): + (positive for mutagenicity, if a biologically relevant increase in the mean number of revertant colonies above a threshold of 2-fold (TA98, TA100, WP2 uvrA))
Ames test strain WP2* (E. coli WP2uvrA (pKM101) [1]; S9 rat, vehicle DMSO): + (positive for mutagenicity, if a biologically relevant increase in the mean number of revertant colonies above a threshold of 2-fold (TA98, TA100, WP2 uvrA))
Ames test strain WP2* (E. coli WP2uvrA (pKM101) [1]; S9 rat, vehicle methanol): + (positive for mutagenicity, if a biologically relevant increase in the mean number of revertant colonies above a threshold of 2-fold (TA98, TA100, WP2 uvrA))
Ames test strain WP2* (E. coli WP2uvrA (pKM101) [1]; S9 rat, vehicle water): + (positive for mutagenicity, if a biologically relevant increase in the mean number of revertant colonies above a threshold of 2-fold (TA98, TA100, WP2 uvrA))
Ames test strain TA100 (S. typhimurium TA100; S9 hamster, vehicle methanol): + (positive for mutagenicity, if a biologically relevant increase in the mean number of revertant colonies above a threshold of 2-fold (TA98, TA100, WP2 uvrA))
Ames test strain TA100 (S. typhimurium TA100; S9 hamster, vehicle water): + (positive for mutagenicity, if a biologically relevant increase in the mean number of revertant colonies above a threshold of 2-fold (TA98, TA100, WP2 uvrA))
Ames test strain TA100 (S. typhimurium TA100; S9 rat, vehicle methanol): + (positive for mutagenicity, if a biologically relevant increase in the mean number of revertant colonies above a threshold of 2-fold (TA98, TA100, WP2 uvrA))
Ames test strain WP2* (E. coli WP2uvrA (pKM101) [2]; vehicle methanol): + (positive for mutagenicity, if a biologically relevant increase in the mean number of revertant colonies above a threshold of 2-fold (TA98, TA100, WP2 uvrA))
Ames test strain WP2* (E. coli WP2uvrA (pKM101) [2]; vehicle water): + (positive for mutagenicity, if a biologically relevant increase in the mean number of revertant colonies above a threshold of 2-fold (TA98, TA100, WP2 uvrA))
Ames test Result ([3]; S9 none, vehicle DMSO): Negative
Ames test Result ([3]; S9 none, vehicle methanol): Negative
Ames test Result ([3]; S9 none, vehicle water): Negative
Ames test Result ([3]; S9 rat, vehicle DMSO): Negative
Ames test Result ([3]; S9 rat, vehicle methanol): Positive
Ames test Result ([3]; S9 rat, vehicle water): Positive
mutagenicity in any bacterial strain ([3]; absence of S9-mix, water, methanol or DMSO as vehicle): not mutagenic
Ames test strain TA1535 (S. typhimurium TA1535; vehicle methanol): + (positive for mutagenicity, if a biologically relevant increase in the mean number of revertant colonies above a threshold of 2-fold (TA98, TA100, WP2 uvrA) or 3-fold (TA1535, TA1537))
Ames test strain TA1535 (S. typhimurium TA1535; vehicle water): + (positive for mutagenicity, if a biologically relevant increase in the mean number of revertant colonies above a threshold of 2-fold (TA98, TA100, WP2 uvrA) or 3-fold (TA1535, TA1537))
Ames test outcome, OECD TG-471 compliant test with appropriate combination of assay parameters ([4]; overall conclusion): positive
Ames test Result ([4]; pre-incubation, S9 hamster, vehicle methanol): Positive
Ames test Result ([4]; pre-incubation, S9 hamster, vehicle water): Positive
Ames test Result ([4]; pre-incubation, S9 rat, vehicle DMSO): Positive
Ames test Result ([4]; pre-incubation, S9 rat, vehicle methanol): Positive
Ames test Result ([4]; pre-incubation, S9 rat, vehicle water): Positive
fold-change increases in revertant colonies ([4]; pre-incubation, rat liver S9-mix, irrespective of the vehicle used (water, DMSO, methanol)): 2–4 fold
